No constants are given. Whether binding was seen depends on the method and setting. In cells and extracts the contact can be indirect. Some binding calls cover weakened binding; strength is not graded here. For part of these data: Where a sequence is shown, tags or fusion partners need not be part of it. Blank lines part the entries; values can stand above or below the molecule they belong to.
How the values were obtained:
[1] = target: T1, GST-Nesprin-2-SMC (human) (UniProt Q8WXH0); assay: pull-down; GST-Nesprin-2-SMC or GST on Glutathione-Sepharose 4B beads incubated overnight with HaCaT cell lysate (50 mM Tris-HCl pH 7.5, 150 mM NaCl, 1% Nonidet P-40, 0.5% sodium deoxycholate); western blot; unsynchronized cells, and for SMC2 also cells in G0/G1 and enriched for S and M phase (RO-3306 or thymidine/Nocodazole); only the target purified
T1 sequence: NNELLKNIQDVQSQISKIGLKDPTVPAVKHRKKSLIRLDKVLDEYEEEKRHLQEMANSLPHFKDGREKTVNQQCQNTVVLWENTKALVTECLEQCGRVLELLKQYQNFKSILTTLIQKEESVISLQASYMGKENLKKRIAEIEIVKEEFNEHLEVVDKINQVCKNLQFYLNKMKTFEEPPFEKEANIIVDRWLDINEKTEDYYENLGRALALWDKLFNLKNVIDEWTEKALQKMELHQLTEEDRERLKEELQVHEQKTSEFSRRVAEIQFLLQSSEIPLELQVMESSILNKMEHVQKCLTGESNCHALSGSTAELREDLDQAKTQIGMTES

Chains of the proteins cited; added tags and fusions are not shown.
UniProt O95347: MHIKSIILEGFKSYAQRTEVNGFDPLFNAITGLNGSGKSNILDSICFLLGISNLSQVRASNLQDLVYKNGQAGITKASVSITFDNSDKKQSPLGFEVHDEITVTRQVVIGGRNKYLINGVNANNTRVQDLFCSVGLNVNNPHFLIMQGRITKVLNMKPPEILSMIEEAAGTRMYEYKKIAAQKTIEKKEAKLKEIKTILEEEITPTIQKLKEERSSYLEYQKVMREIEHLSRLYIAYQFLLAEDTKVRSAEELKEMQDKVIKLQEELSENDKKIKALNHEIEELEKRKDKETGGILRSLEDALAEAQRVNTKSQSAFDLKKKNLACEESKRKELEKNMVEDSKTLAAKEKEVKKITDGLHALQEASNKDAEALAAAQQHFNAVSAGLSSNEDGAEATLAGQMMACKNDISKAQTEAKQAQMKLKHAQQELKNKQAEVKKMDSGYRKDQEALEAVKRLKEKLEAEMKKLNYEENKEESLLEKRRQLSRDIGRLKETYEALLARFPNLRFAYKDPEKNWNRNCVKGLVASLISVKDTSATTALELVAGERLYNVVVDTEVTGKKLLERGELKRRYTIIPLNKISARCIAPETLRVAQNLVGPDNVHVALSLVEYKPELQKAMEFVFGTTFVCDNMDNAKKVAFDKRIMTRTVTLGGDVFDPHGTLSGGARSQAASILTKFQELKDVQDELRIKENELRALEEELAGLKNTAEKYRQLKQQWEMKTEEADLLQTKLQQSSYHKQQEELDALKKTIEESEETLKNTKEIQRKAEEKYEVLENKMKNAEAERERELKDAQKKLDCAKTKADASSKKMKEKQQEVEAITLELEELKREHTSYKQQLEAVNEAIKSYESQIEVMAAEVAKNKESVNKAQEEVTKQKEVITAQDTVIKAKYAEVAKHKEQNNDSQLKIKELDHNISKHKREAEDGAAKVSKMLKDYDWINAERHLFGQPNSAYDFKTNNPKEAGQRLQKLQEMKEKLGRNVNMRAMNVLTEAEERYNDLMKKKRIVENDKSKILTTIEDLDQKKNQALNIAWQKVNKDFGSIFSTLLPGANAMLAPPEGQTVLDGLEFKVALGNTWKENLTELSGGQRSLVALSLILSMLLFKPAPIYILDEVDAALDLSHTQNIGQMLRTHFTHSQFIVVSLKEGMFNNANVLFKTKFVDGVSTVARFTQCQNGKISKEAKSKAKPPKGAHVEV
UniProt Q15003: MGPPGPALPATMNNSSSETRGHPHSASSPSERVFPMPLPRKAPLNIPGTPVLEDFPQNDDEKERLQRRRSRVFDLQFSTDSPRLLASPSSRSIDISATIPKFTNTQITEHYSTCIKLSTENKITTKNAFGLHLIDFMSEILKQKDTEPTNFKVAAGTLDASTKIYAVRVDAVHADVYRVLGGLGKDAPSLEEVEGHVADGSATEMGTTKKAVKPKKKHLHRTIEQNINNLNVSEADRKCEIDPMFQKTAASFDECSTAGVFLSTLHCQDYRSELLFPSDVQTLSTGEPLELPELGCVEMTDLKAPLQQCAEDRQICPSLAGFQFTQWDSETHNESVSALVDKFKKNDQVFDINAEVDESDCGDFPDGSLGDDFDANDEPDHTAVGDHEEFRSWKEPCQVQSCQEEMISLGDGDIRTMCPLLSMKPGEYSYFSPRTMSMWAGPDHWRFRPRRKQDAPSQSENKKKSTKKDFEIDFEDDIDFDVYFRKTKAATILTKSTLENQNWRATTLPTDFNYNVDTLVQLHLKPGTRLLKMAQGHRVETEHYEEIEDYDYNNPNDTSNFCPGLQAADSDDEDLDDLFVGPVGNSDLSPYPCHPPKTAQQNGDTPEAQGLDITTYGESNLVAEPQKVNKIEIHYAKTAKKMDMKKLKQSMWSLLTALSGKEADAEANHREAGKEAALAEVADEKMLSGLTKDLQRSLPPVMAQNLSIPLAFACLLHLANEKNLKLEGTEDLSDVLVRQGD
UniProt Q9UQE7: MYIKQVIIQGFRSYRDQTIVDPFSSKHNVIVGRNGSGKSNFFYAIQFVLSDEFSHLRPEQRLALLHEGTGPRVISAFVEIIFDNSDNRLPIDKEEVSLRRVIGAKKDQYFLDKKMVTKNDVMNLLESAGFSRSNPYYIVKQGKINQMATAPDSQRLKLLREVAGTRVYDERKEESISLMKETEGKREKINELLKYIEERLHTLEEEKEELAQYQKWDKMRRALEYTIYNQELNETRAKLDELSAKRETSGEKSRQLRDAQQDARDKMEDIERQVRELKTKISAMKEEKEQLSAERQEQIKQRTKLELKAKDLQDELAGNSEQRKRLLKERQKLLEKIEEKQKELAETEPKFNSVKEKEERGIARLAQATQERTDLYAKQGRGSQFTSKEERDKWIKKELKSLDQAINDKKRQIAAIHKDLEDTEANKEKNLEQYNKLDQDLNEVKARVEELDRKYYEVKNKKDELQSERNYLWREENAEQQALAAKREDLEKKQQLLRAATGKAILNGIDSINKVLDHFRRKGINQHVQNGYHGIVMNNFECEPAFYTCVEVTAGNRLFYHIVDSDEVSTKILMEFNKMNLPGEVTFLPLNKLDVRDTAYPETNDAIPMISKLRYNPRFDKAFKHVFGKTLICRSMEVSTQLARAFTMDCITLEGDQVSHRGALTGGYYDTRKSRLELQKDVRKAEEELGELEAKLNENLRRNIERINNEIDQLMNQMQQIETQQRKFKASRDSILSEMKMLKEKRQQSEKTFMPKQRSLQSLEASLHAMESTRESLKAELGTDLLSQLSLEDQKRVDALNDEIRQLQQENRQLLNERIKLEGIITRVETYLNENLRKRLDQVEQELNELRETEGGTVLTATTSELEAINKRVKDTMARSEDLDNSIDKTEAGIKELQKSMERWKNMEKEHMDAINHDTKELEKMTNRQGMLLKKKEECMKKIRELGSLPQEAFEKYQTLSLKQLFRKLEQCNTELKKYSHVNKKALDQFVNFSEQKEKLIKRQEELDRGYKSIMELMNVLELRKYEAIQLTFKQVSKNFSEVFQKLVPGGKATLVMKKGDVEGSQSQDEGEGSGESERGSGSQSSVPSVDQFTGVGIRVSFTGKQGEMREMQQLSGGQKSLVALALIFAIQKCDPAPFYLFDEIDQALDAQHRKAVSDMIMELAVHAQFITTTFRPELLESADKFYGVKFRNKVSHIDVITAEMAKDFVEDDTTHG
UniProt Q9NTJ3: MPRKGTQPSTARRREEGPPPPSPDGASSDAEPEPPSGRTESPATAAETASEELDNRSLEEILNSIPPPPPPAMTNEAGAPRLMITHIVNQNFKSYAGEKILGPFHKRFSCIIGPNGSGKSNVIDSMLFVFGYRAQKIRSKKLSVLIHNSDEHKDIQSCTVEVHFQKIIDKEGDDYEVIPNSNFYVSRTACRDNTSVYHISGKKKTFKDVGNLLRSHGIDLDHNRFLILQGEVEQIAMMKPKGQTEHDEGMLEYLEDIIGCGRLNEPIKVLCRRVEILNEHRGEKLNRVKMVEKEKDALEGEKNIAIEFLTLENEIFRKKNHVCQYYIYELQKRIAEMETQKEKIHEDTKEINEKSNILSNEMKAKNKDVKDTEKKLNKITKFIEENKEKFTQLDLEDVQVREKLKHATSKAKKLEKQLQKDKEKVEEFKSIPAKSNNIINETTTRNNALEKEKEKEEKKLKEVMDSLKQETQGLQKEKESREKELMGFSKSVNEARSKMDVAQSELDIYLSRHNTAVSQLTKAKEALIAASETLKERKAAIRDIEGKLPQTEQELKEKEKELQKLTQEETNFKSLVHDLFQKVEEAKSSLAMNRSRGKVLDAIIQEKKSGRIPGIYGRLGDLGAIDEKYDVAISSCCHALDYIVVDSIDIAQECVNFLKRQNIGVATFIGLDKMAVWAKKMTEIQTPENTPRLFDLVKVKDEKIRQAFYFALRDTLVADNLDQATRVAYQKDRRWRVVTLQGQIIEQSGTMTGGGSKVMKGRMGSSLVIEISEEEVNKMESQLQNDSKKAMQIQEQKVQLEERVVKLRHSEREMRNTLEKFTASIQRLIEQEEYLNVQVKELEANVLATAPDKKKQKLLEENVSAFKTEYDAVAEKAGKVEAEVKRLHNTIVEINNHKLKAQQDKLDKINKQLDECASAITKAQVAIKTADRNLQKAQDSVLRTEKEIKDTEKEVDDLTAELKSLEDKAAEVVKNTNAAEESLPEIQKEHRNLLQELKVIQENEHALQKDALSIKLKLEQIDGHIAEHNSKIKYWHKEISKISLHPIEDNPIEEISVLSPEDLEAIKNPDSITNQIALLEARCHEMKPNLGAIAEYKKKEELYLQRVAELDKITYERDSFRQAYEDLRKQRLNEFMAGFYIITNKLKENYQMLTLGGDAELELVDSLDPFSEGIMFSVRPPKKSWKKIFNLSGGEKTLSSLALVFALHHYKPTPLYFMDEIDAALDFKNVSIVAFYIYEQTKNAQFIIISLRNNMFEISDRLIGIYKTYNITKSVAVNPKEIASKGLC

[2] = target: SMC2 (human (endogenous in HaCaT)) (UniProt O95347); assay: co-IP; immunoprecipitation from HaCaT cell lysates with mAb K20-478 (Nesprin-2) or SMC2 specific antibodies, protein A Sepharose, western blot; GFP antibodies as control; unsynchronized cells
[3] = target: Nesprin-2 giant (human (endogenous in HaCaT)) (UniProt Q8WXH0); assay: as above
[4] = target: T1, GST-Nesprin-2-SMC (human); assay: pull-down; GST-Nesprin-2-SMC or GST on Glutathione-Sepharose beads incubated overnight with lysates of COS7 cells expressing Myc-tagged polypeptides; western blot with Myc mAb 9E10; only the target purified
[5] = target: T1, GST-Nesprin-2-SMC (human); assay: pull-down; GST-Nesprin-2-SMC or GST on Glutathione-Sepharose 4B beads incubated overnight with HaCaT cell lysate (50 mM Tris-HCl pH 7.5, 150 mM NaCl, 1% Nonidet P-40, 0.5% sodium deoxycholate); western blot; unsynchronized cells, and for SMC2 also cells in G0/G1 and enriched for S and M phase (RO-3306 or thymidine/Nocodazole); only the target purified; remark: listed apart in the source

Molecule: CAP-H (kleisin γ, non-SMC condensin I complex subunit H) (from UniProt Q15003 1-741)
binding [1]: binds

Molecule: Nesprin-2 giant (from UniProt Q8WXH0-1 1-6885)
binding [2]: binds

Molecule: SMC3 (from UniProt Q9UQE7 1-1217)
binding [1]: no binding

Molecule: SMC4 (from UniProt Q9NTJ3 1-1288)
binding [1]: binds
binding [3]: binds

More lines, now with the values ahead:

binding [1]: binds
binding [3]: binds
Molecule: SMC2 (from UniProt O95347 1-1197)

binding [4]: binds
B1: Nesprin-2-SMC (domain or fragment, human, UniProt Q8WXH0 1436-1766, looked up)
chain: NNELLKNIQDVQSQISKIGLKDPTVPAVKHRKKSLIRLDKVLDEYEEEKRHLQEMANSLPHFKDGREKTVNQQCQNTVVLWENTKALVTECLEQCGRVLELLKQYQNFKSILTTLIQKEESVISLQASYMGKENLKKRIAEIEIVKEEFNEHLEVVDKINQVCKNLQFYLNKMKTFEEPPFEKEANIIVDRWLDINEKTEDYYENLGRALALWDKLFNLKNVIDEWTEKALQKMELHQLTEEDRERLKEELQVHEQKTSEFSRRVAEIQFLLQSSEIPLELQVMESSILNKMEHVQKCLTGESNCHALSGSTAELREDLDQAKTQIGMTES
notes: Nesprin-2, human, SMC domain, aa 1436-1766, spectrin repeats 11-13; Calculated molecular weight 38.78 kDa (39 kDa); also called Nesprin-2-SMC domain; SMC polypeptide; source: E. coli XL-1 blue, purified (Glutathione-Sepharose 4B, released from GST by thrombin cleavage); not shown: GST, N-terminal, cleaved

binding [5]: binds
B2: CAP-H2 (kleisin β, non-SMC condensin II complex subunit H2) (protein, UniProt Q6IBW4 1-605)
chain: MEDVEARFAHLLQPIRDLTKNWEVDVAAQLGEYLEELDQICISFDEGKTTMNFIEAALLIQGSACVYSKKVEYLYSLVYQALDFISGKRRAKQLSSVQEDRANGVASSGVPQEAENEFLSLDDFPDSRTNVDLKNDQTPSEVLIIPLLPMALVAPDEMEKNNNPLYSRQGEVLASRKDFRMNTCVPHPRGAFMLEPEGMSPMEPAGVSPMPGTQKDTGRTEEQPMEVSVCRSPVPALGFSQEPGPSPEGPMPLGGGEDEDAEEAVELPEASAPKAALEPKESRSPQQSAALPRRYMLREREGAPEPASCVKETPDPWQSLDPFDSLESKPFKKGRPYSVPPCVEEALGQKRKRKGAAKLQDFHQWYLAAYADHADSRRLRRKGPSFADMEVLYWTHVKEQLETLRKLQRREVAEQWLRPAEEDHLEDSLEDLGAADDFLEPEEYMEPEGADPREAADLDAVPMSLSYEELVRRNVELFIATSQKFVQETELSQRIRDWEDTVQPLLQEQEQHVPFDIHTYGDQLVSRFPQLNEWCPFAELVAGQPAFEVCRSMLASLQLANDYTVEITQQPGLEMAVDTMSLRLLTHQRAHKRFQTYAAPSMAQP

— PMC5763115, “Nesprin-2 Interacts with Condensin Component SMC2” (International Journal of Cell Biology, 2017)
